Laboratory results from publication PMC6919601, “Identification of Plasmodium dipeptidyl aminopeptidase allosteric inhibitors by high throughput screening” (PLoS ONE, 2019).
“And” between values parts separate entries of the source, which are not always exact repeats. Equal entries are not always repeated. Among all 110,000 compounds or so, about 230 (0.21%) showed an effect of 50% or more. Some of the results follow.

Target: DPAP1 (Plasmodium falciparum, UniProt Q8IIJ9)
Test: primary screen, percent inhibition; read by cleavage of a fluorogenic dipeptide substrate; higher = more effect of the substance
Parameters: species or system P. falciparum D10 trophozoite lysates; single well
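Also: 30 min substrate incubation versus DMSO and 10 µM JCP410 controls.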

Sequence of DPAP1 (Q8IIJ9 whole entry, looked up): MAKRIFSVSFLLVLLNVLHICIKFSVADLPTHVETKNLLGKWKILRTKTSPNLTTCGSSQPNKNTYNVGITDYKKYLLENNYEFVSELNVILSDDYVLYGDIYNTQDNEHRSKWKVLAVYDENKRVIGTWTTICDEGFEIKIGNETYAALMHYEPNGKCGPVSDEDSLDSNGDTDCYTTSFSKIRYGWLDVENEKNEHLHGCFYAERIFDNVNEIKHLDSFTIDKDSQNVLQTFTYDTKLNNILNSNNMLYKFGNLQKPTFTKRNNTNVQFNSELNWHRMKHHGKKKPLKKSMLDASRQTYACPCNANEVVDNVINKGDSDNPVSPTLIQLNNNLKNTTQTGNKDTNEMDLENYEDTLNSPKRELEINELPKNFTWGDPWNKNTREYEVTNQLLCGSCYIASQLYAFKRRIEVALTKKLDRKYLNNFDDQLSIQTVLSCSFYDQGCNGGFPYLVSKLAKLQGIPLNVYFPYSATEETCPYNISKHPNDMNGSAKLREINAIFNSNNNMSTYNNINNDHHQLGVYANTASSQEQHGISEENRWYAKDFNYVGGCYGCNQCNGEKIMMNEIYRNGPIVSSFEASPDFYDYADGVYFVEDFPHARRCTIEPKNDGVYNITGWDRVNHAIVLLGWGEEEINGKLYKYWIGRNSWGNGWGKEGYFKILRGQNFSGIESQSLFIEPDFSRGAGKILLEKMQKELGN

Structure (SMILES) | % Inhibition @ 10 uM
COc1ccc(CN2C(=O)C3CC=C(C)CC3C2=O)cc1 (centres unmarked) | 0.275%
CC(C)CC(=O)Nc1ccc(N2CCCCC2)c(Cl)c1 | -0.25% and -0.519%
CSC1=C(C#N)C(c2cccc(Oc3ccccc3)c2)CC(=O)N1 (centres unmarked) | 13.2%
O=C(Cn1ncc2c1-c1ccccc1OC2)NCCC1=CCCCC1 | 1.72%
CC(=O)c1c(O)cc(C)o/c1=N\C1CCCCC1 | 1.13%
CCOc1ccc(-c2nc(NC(=O)c3sc(C)nc3C)sc2C)cc1 | -2.71%
CCCOC(=O)C1=C(C)NC(=O)NC1c1cccc(Cl)c1 (centres unmarked) | 0.162%
CCOc1ccc(-c2cc(C(=O)O)c3c(-c4ccc(F)cc4)[nH]nc3n2)cc1 | -0.901%
O=C(O)/C=C/c1cccc(C(=O)O)c1 | -6.11%
O=C(Nc1ccccc1C(=O)NCc1ccccc1)c1ccccc1 | 1.89%
Cc1ccc(O)c(NC(=O)CSc2ccccc2)c1 | -3.43%
COc1ccc2cc3cc(C(=O)N(C)Cc4ccccc4)sc3nc2c1 | 0.402%
O=C(NCc1cccnc1)C1=Cc2sc3c(c2CS1)CCCC3 | 8.38%
Cc1[nH]c(C=O)c(C)c1C(=O)OCc1ccccc1 | 0.919%
CCC1=CC(C)(CC)N(Cc2ccc([N+](=O)[O-])cc2)c2cc(C)ccc21 (centres unmarked) | -8.11%
COC(=O)c1nnn(-c2ccccc2F)c1C(=O)OC | -3.39%
Cc1cccc(Cn2c(C)c(C)c3cc(C(=O)NCc4cccnc4)ccc32)c1 | 2.29%
O=C(NC1CSCC1=O)c1ccccc1 (centres unmarked) | -1.15%
CCCC(=O)c1cc2cc(Br)cc(Br)c2oc1=O | -3.44%
CC1CC(C)CN(S(=O)(=O)c2ccc(NC(=O)c3ccccc3Cl)cc2)C1 (centres unmarked) | -4.74%
CN1CCN(C(=O)c2cc(Cl)ccc2NC(=O)c2ccc(Cl)cc2Cl)CC1 | -3.71%
COc1ccc(-c2[nH]nc3c2C2(C(=O)Nc4ccc(C)c(Br)c42)C(C#N)=C(N)O3)cc1 (centres unmarked) | 2.32%

Structure (SMILES) | % Inhibition @ 10 uM
Cc1ccc(-c2cc(C(=O)N3CCOCC3)c3ccccc3n2)cc1C | 7.39%
N#CCC(=O)NCCCOC(=O)Nc1ccc(Cl)c(Cl)c1 | -4.01%
COc1ccc(Cl)c(Cn2c(NCCO)nc3c2c(=O)n(C)c(=O)n3C)c1 | 0.248%
CCOc1ccc(-n2nc3ccc(NC(=O)c4ccc(Br)o4)cc3n2)cc1 | 2.09%
CS(=O)(=NS(=O)(=O)c1ccccc1)c1ccccc1 (centres unmarked) | 3.05%
CN(C)c1ccc(CN2CCN(C/C=C/c3ccccc3)CC2)cc1 | -5.61%
COc1ccc2ccccc2c1C1CC(=O)N2CN(C3CCCCC3)CSC2=C1C#N (centres unmarked) | 26.9%
CCN(c1ccccc1)S(=O)(=O)c1ccc(NC(=O)c2ccccc2C)cc1 | 2.01%
CCOC(=O)C1=C(C)N(C)C(=S)NC1c1ccc(OCc2ccccc2)c(OCC)c1 (centres unmarked) | -0.339%
O=C(C(Cc1ccccc1)N1C(=O)C2CCCCC2C1=O)N1CCN=C1c1ccccc1 (centres unmarked) | 4.83%
CC(=O)N1CC2(C)CN(C(C)=O)CC(C)(C1)C2 | -3.49%
COc1ccc2c(c1OC)C(=O)OC2Nc1cccc(C)n1 (centres unmarked) | -4.93%
CNC(=O)CN(c1ccc(F)cc1)S(=O)(=O)c1ccc(OC)c(OC)c1 | 5.99%
Cn1c(=O)c2c(nc(NCCN)n2Cc2ccc(Cl)cc2)n(C)c1=O | -1.5%
O=C(CSCCO)Nc1ccc(C23C[C@H]4C[C@@H](C2)C[C@@H](C3)C4)cc1 | 5.31%
CCN(CC)S(=O)(=O)C1CCS(=O)(=O)C1 (centres unmarked) | -2.62%
COc1ccc(OC)c(NS(=O)(=O)c2ccc(Br)cc2)c1 | -5.01%
CCOC(=O)N1CCC(Nc2cc(C)nc3c(-c4ccccc4OC)c(C)nn23)CC1 | -6.91%
CCC(Oc1ccccc1)C(=O)Nc1sc2c(c1C(N)=O)CCCC2 (centres unmarked) | -3.26%
Cc1cc(NC(=O)c2ccc3c(c2)C(=O)N(Cc2ccccc2)C3=O)no1 | -3.96%
O=C(O)c1ccccc1C(=O)Nc1ccc2c(c1)OCO2 | 3.58%
COc1cc(C(=O)N(Cc2cccc(Cl)c2)C2CCS(=O)(=O)C2)cc(OC)c1OC (centres unmarked) | -1.18%

Structure (SMILES) | % Inhibition @ 10 uM
O=C(Nc1nc(-c2ccc(F)cc2F)cs1)c1cccs1 | -5.06%
CCOc1ncnc2c1[nH]c1ccc(F)cc12 | 4.7%
Cc1c(C)c(COc2cccc3cccnc23)c(C)c(C)c1Br | 2.22%
Clc1ccc2nncn2n1 | 4.01%
CC(C)CNS(=O)(=O)c1ccccc1C(=O)N1CCCCC1 | -3.27%
O=C(Cn1nnc2sc(-c3ccccc3)cc2c1=O)NCc1ccccc1 | 4%
CCOC(=O)C1CCCN(Cc2ccc(N(C)C)cc2)C1 (centres unmarked) | -0.0404%
Cc1ccc(NC(=O)C2CC(O)CN2C(=O)OCc2ccccc2)c(C)c1 (centres unmarked) | -3.69%
COc1cc(C=C2C(=O)NC(=O)NC2=O)ccc1OCc1ccc(C(=O)O)cc1 | 10.5%
CCOc1ccc(N2C(=O)CC(NCCc3cccc(OC)c3)C2=O)cc1 (centres unmarked) | 5.94%
O=C1CC(N2CCC(Cc3ccccc3)CC2)C(=O)N1c1ccc(F)cc1 (centres unmarked) | 4.32%
N#Cc1ccccc1NC(=O)c1cc(Cl)ccc1Cl | -2.96%
CN1CCCN(Cc2ccccc2[N+](=O)[O-])CC1 | -5.57%
CCn1c(C(=O)NCc2ccccn2)cc2oc3ccccc3c21 | -3.96%
Brc1ccccc1CN1CCN(c2ccccc2)CC1 | -3.56%
COc1cc(OC)c(CN(C)C2CCN(C)CC2)cc1Br | -4.61%
CCC(C(=O)NCCc1ccc(S(N)(=O)=O)cc1)n1nc(C)c2sc3ccccc3c2c1=O (centres unmarked) | 1.46%
Cc1[nH]c(=O)[nH]c(=O)c1/C=C/C(=O)O | -9.33% and -3.64%
CCCn1c(C(C)NC(=O)c2ccc(F)cc2)nc2ccccc21 (centres unmarked) | 12.7%
Oc1ccc(-c2csc(Nc3ccccn3)n2)cc1O | 0.627%
COc1cc(OC)cc(C(=O)Nc2c(C)nn(-c3ccccc3)c2C)c1 | 1.86%
